Test results: PubChem BioAssay AID2060495 (Molecular Pharmacology Branch, DTP, NCI, 2025)
Not every entry of the source has a single result; some have several. The list is limited to them. An entry can have further records. The records of an entry repeat one measurement (runs, samples, wells, individuals or studies). Signs of the kind (2×) stand for listed records that agree. Values belong to the compound of their own block, whether it stands above or below them.

Tested on: 521955-158-R2-J5-PDC complex spheroid viability
Assay: Anticancer human tumor 521955-158-R2-J5-PDC patient-derived pancreatic carcinoma cell line growth inhibition [GQUAD]
Conditions: for viability, T/C: stronger effect = lower value
From the text: DNA G-quadruplex Stabilizer Agents in Combinations in Complex Spheroids
A high-throughput screen of multi-cell type tumor spheroids was designed to identify active combinations of DNA G-quadruplex stabilizer agents and targeted small molecules. Complex spheroids include a stromal component modeled by human endothelial cells (HUVEC) and fibroblasts modeled by human mesenchymal stem cells (MSCs). The concentration ranges selected for each drug and investigational agent were based upon clinically achievable concentrations if the clinical Cmax of the agent was known.
Compounds. The drugs and investigational agents: pidnarulex (CX-5461; NSC782164), APTO-253 (NSC789042), BRACO-19 (NSC847499), peposertib (NSC802822), ceralasertib (NSC780249), elimusertib (NSC800525), camonsertib (NSC841442), AZD-1390 (NSC803789), olaparib (NSC753686), talazoparib (NSC767125), ART-558 (NSC835418), sotorasib (NSC818433), MRTX-1133 (NSC836407), SN-38 (NSC673596), topotecan (NSC609699), etoposide (NSC141540), doxorubicin (NSC123127), gemcitabine (NSC613327), 5-fluorouracil (NSC19893), paclitaxel (NSC125973), vemurafenib (NSC761431), panobinostat (NSC761190), R-306465 (JNJ-16241199; NSC773264), adavosertib (NSC754352), TP-3654 (NSC805149), carboplatin (NSC241240), KSQ-4279 (NSC840948), and staurosporine (NSC755774) were obtained from the National Cancer Institute (NCI) Developmental Therapeutics Program Chemical Repository (34). The FDA-approved anticancer drug set is available from the NCI Developmental Therapeutics Program. […] The stock solutions were prepared in dimethyl sulfoxide (DMSO, Sigma-Aldrich, St. Louis, MO, cat. D2650) at 800-fold the tested concentration and stored at -70 degrees C prior to their use. All drugs and investigational agents were tested over a range starting from a high concentration at or near the clinical Cmax and decreasing in half-log increments. If the clinical Cmax for an agent had not been determined, the highest concentration tested was 10 microM.
2.3 Cell Culture. All cells were maintained in an incubator at 37 degrees C and 5% CO2 with 95% humidity. The PDC lines were cultured according to standard operating procedures established by the NCI PDMR. All PDCs were thawed and cultured in Matrigel-coated flasks prepared with a working solution of 1X Ham's F-12 nutrient mix, without supplementation (Invitrogen, cat. 11765054), 100 U/mL penicillin-streptomycin (Invitrogen, cat. 15140122), and 2.5% Matrigel (Corning Inc., cat. 354248) for the first three passages. […]
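Further: spheroids exposed to agents for one week before reading.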
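Wherever viability, T/C is given: 100% = DMSO vehicle control viability.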

IC50 (compound alone): < 31.6 nM, 2.32 µM, 576 nM
Structure (SMILES): C#Cc1c(F)ccc2cc(O)cc(-c3ncc4c(N5CC6CCC(C5)N6)nc(OCC56CCCN5CC(F)C6)nc4c3F)c12 (centres undefined)

Structure (SMILES): Cc1[nH]c2ccc(F)cc2c1-c1nc2c3cccnc3c3ncccc3c2[nH]1
viability, T/C (compound alone 0.316 µM): 108 (2×), 88.3, 89.9, 101, 100, 111, 97.9, 94.7, 95.7, 86.1, 113%
viability, T/C (compound alone 3.16 µM): 79.2, 91.2, 89.1, 81.2, 93.3, 99.7, 87.2, 83.4, 84.2, 71.7, 79.4, 82%

Structure (SMILES): Cc1cnc(CNC(=O)c2c(=O)c3ccc(N4CCCN(C)CC4)nc3n3c2sc2ccccc23)cn1
viability, T/C (compound alone 0.1 µM): 56.1, 53.5, 57.8, 83.4, 60.4, 50.5, 56.8, 69.6, 53.8, 56.4, 53.9, 52.7%
